In the supplement of paper PMC6089552:
The whole screen tested about 3,200 compounds, of which about 300 (9.4%) showed activity. The entries are a selection whose mix differs from that of the whole data set.

System: A673/TR/shEF
Test: cell viability (LOESS-normalised, relative to median of negative controls) (log2 ratio); higher = more viable cells (less compound effect), active = hit call of the paper (over 3 MAD below the median)
Conditions: treatment time: 72 h
In short: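 Viability of A673/TR/shEF Ewing sarcoma cells was determined by CellTiter-Glo luminescence. The cells, at 1,500 per well in 384-well plates, were grown with or without doxycycline from 24 h before compound addition to switch on EWS-FLI1 shRNA knockdown, then exposed for three days to library compounds at two or more concentrations or to DMSO controls. Signals were LOESS-corrected plate by plate, normalised to the negative-control median and log2-transformed.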

[1] = 0.25 µM, library screen: screen1, EWS-FLI1 expression: high (no doxycycline)
[2] = 0.25 µM, library screen: screen1, EWS-FLI1 expression: low (doxycycline-induced shRNA knockdown)
[3] = 0.25 µM, library screen: screen2, EWS-FLI1 expression: high (no doxycycline)
[4] = 0.25 µM, library screen: screen2, EWS-FLI1 expression: low (doxycycline-induced shRNA knockdown)
[5] = 2.5 µM, library screen: screen1, EWS-FLI1 expression: high (no doxycycline)
[6] = 2.5 µM, library screen: screen1, EWS-FLI1 expression: low (doxycycline-induced shRNA knockdown)
[7] = 2.5 µM, library screen: screen2, EWS-FLI1 expression: high (no doxycycline)
[8] = 2.5 µM, library screen: screen2, EWS-FLI1 expression: low (doxycycline-induced shRNA knockdown)
[9] = 0.103 µM, library screen: screen3, EWS-FLI1 expression: high (no doxycycline)
[10] = 0.103 µM, library screen: screen3, EWS-FLI1 expression: low (doxycycline-induced shRNA knockdown)
[11] = 0.308 µM, library screen: screen3, EWS-FLI1 expression: high (no doxycycline)
[12] = 0.308 µM, library screen: screen3, EWS-FLI1 expression: low (doxycycline-induced shRNA knockdown)
[13] = 0.926 µM, library screen: screen3, EWS-FLI1 expression: high (no doxycycline)
[14] = 0.926 µM, library screen: screen3, EWS-FLI1 expression: low (doxycycline-induced shRNA knockdown)
[15] = 2.8 µM, library screen: screen3, EWS-FLI1 expression: high (no doxycycline)
[16] = 2.8 µM, library screen: screen3, EWS-FLI1 expression: low (doxycycline-induced shRNA knockdown)
[17] = 8.3 µM, library screen: screen3, EWS-FLI1 expression: high (no doxycycline)
[18] = 8.3 µM, library screen: screen3, EWS-FLI1 expression: low (doxycycline-induced shRNA knockdown)
[19] = 25 µM, library screen: screen3, EWS-FLI1 expression: high (no doxycycline)
[20] = 25 µM, library screen: screen3, EWS-FLI1 expression: low (doxycycline-induced shRNA knockdown)

Measured: cell viability (log2)

CS(=O)(=O)Nc1ccc([N+](=O)[O-])cc1Oc1ccccc1
inactive: [1] 0.147 | [2] 0.0914 | [3] 0.0788 | [4] -0.000657 | [5] 0.123 | [6] 0.11 | [7] 0.101 | [8] 0.0459

O=C(O)C1=CCNCC1
inactive: [1] 0.092 | [2] 0.14 | [3] 0.185 | [4] 0.088 | [5] 0.0671 | [6] 0.217 | [7] 0.23 | [8] 0.0512

CCC1=C[C@@H]2CN(C1)Cc1c([nH]c3ccccc13)[C@@](C(=O)OC)(c1cc3c(cc1OC)N(C)[C@H]1[C@@](O)(C(=O)OC)[C@H](OC(C)=O)[C@]4(CC)C=CCN5CC[C@]31[C@@H]54)C2
active: [9] -4.31 | [10] -1.05 | [11] -3.96 | [12] -1.11 | [13] -4.31 | [14] -0.811 | [15] -4.31 | [16] -0.798 | [17] -3.91 | [18] -0.769 | [19] -3.44 | [20] -0.836

COC1[C@H](O)[C@@H](O)C(O)[C@H](O)[C@H]1O (stereo partly specified)
inactive: [1] 0.0827 | [2] 0.0562 | [5] 0.177 | [6] 0.115

CCOC(=O)CCC(=O)O[C@H]1[C@H](O[C@@H]2[C@@H](C)[C@H](O[C@H]3C[C@@](C)(OC)[C@@H](O)[C@H](C)O3)[C@@H](C)C(=O)O[C@H](CC)[C@@](C)(O)[C@H](O)[C@@H](C)C(=O)[C@H](C)C[C@@]2(C)O)O[C@H](C)C[C@@H]1N(C)C
inactive: [1] 0.147 | [2] 0.0798 | [5] 0.135 | [6] -0.00105

C[C@]12C=CC(=O)C=C1CC[C@@H]1[C@@H]2C(=O)C[C@@]2(C)[C@H]1CC[C@]2(O)C(=O)CO
inactive: [9] 0.0128 | [10] -0.00442 | [1] 0.0597 | [2] 0.0865 | [11] 0.0642 | [12] 0.0373 | [13] 0.119 | [14] 0.0782 | [5] 0.0821 | [6] 0.126 | [15] 0.0918 | [16] 0.158 | [17] 0.043 | [18] 0.0793 | [19] 0.104 | [20] 0.14

C[C@]12C=CC(=O)C=C1CC[C@@H]1C2=CC[C@]2(C)[C@@H](C(=O)CN3CCN(c4cc(N5CCCC5)nc(N5CCCC5)n4)CC3)CC[C@@H]12
inactive: [3] 0.131 | [4] 0.0546 | [7] 0.0776 | [8] 0.0158
